The supplement of paper PMC10369915
The other results are listed elsewhere or left out. Rule as the data show it: active = 3.2 or more and inactive = the rest. Most of these values are background signal.

These binders were tested against SHP2 C-SH2 domain E139D (assay: enrichment score (SH2-bound / input frequency) (ratio); bacterial display of known human phosphotyrosine sites (pTyr-Var adds point mutants) read by sequencing; higher = stronger binding; tyrosines were phosphorylated by kinases first). Conditions: peptide library: pTyr-Var.
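Also: displayed peptides selected on beads carrying the immobilized SH2 domain, with library peptides lacking any tyrosine serving as negative controls.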

Enrichment score, inactive:
LRRREYQRQDF [PRKRIP1_Y90_YF] 0.286, YPLELYERVRI [PRKCG_Y312_M317I] 0.833, FPLELYERVRM [PRKCG_Y312_YF] 1.11, QITQVYGFYHE [PPP2CA_Y127_D131H] 1.62, MCITQYKRESQ [PRNP_Y218_E219K] 0.642, FENGEYIIRQG [PRKG1_Y247_YF] 1.18, DAPVVYLGSFR [PRAG1_Y132] 0.638, CGTPDNIAPEI [PRKCG_Y521_Y521N] 0.879, ECKETYHEGEC [PRKN_Y372_A371T] 0.506, LFMGDYVGRGY [PPP2CA_Y86_D88G] 1.03, AKKMKYFEGVS [PRKDC_Y682_I680M] 0.944, QITQVYGFFHE [PPP2CA_Y127_D131H_YF] 1.3, TTTQAYRVDER [PRKN_Y391] 0.543, HITQVYGFFDE [PPP2CA_Y127_Q122H_YF] 2.24, RNIQQHNSFVS [PRKAR1A_Y373_Y373H] 0.675, KCCCIYEKPRA [PPP1R11_Y64] 1.06, PEIIAYQPFGK [PRKCG_Y529_YF] 0.91, LVQAEYWHDPI [PPT1_Y185] 1.29

These binders were tested against SHP2 C-SH2 domain wild-type in the same assay as above. Conditions: peptide library: pTyr-Var.

Enrichment score, inactive:
LRRREYQRQDF [PRKRIP1_Y90_YF] 0.277, YPLELYERVRI [PRKCG_Y312_M317I] 0.983, FPLELYERVRM [PRKCG_Y312_YF] 1.21, QITQVYGFYHE [PPP2CA_Y127_D131H] 1.18, MCITQYKRESQ [PRNP_Y218_E219K] 0.576, FENGEYIIRQG [PRKG1_Y247_YF] 0.829, DAPVVYLGSFR [PRAG1_Y132] 1.31, CGTPDNIAPEI [PRKCG_Y521_Y521N] 0.845, ECKETYHEGEC [PRKN_Y372_A371T] 0.526, LFMGDYVGRGY [PPP2CA_Y86_D88G] 1.04, AKKMKYFEGVS [PRKDC_Y682_I680M] 0.783, QITQVYGFFHE [PPP2CA_Y127_D131H_YF] 1.36, TTTQAYRVDER [PRKN_Y391] 0.614, HITQVYGFFDE [PPP2CA_Y127_Q122H_YF] 1.56, RNIQQHNSFVS [PRKAR1A_Y373_Y373H] 0.652, KCCCIYEKPRA [PPP1R11_Y64] 1.28, PEIIAYQPFGK [PRKCG_Y529_YF] 0.811, LVQAEYWHDPI [PPT1_Y185] 1.13

Each binder was assayed against SHP2 N-SH2 domain L43F in the same assay as above. Conditions: peptide library: pTyr-Var.

Enrichment score, inactive:
LRRREYQRQDF [PRKRIP1_Y90_YF] 0.235, YPLELYERVRI [PRKCG_Y312_M317I] 0.804, FPLELYERVRM [PRKCG_Y312_YF] 0.921, QITQVYGFYHE [PPP2CA_Y127_D131H] 1.34, MCITQYKRESQ [PRNP_Y218_E219K] 0.586, FENGEYIIRQG [PRKG1_Y247_YF] 0.876, DAPVVYLGSFR [PRAG1_Y132] 0.766, CGTPDNIAPEI [PRKCG_Y521_Y521N] 0.971, ECKETYHEGEC [PRKN_Y372_A371T] 0.502, LFMGDYVGRGY [PPP2CA_Y86_D88G] 1.08, AKKMKYFEGVS [PRKDC_Y682_I680M] 0.879, QITQVYGFFHE [PPP2CA_Y127_D131H_YF] 1.72, TTTQAYRVDER [PRKN_Y391] 0.556, HITQVYGFFDE [PPP2CA_Y127_Q122H_YF] 2.24, RNIQQHNSFVS [PRKAR1A_Y373_Y373H] 0.666, KCCCIYEKPRA [PPP1R11_Y64] 0.997, PEIIAYQPFGK [PRKCG_Y529_YF] 0.868, LVQAEYWHDPI [PPT1_Y185] 0.92

What follows are binders tested against SHP2 N-SH2 domain T42A in the same assay as above. Conditions: peptide library: pTyr-Var.

Enrichment score, inactive:
LRRREYQRQDF [PRKRIP1_Y90_YF] 0.236, YPLELYERVRI [PRKCG_Y312_M317I] 0.775, FPLELYERVRM [PRKCG_Y312_YF] 1.05, QITQVYGFYHE [PPP2CA_Y127_D131H] 1.56, MCITQYKRESQ [PRNP_Y218_E219K] 0.573, FENGEYIIRQG [PRKG1_Y247_YF] 0.86, DAPVVYLGSFR [PRAG1_Y132] 1.77, CGTPDNIAPEI [PRKCG_Y521_Y521N] 0.752, ECKETYHEGEC [PRKN_Y372_A371T] 0.407, LFMGDYVGRGY [PPP2CA_Y86_D88G] 0.873, AKKMKYFEGVS [PRKDC_Y682_I680M] 0.642, QITQVYGFFHE [PPP2CA_Y127_D131H_YF] 1.26, TTTQAYRVDER [PRKN_Y391] 0.626, HITQVYGFFDE [PPP2CA_Y127_Q122H_YF] 2.07, RNIQQHNSFVS [PRKAR1A_Y373_Y373H] 0.667, KCCCIYEKPRA [PPP1R11_Y64] 1.11, PEIIAYQPFGK [PRKCG_Y529_YF] 1.31, LVQAEYWHDPI [PPT1_Y185] 1.02

What follows are binders tested against SHP2 N-SH2 domain T52S in the same assay as above. Conditions: peptide library: pTyr-Var.

Enrichment score, inactive:
LRRREYQRQDF [PRKRIP1_Y90_YF] 0.27, YPLELYERVRI [PRKCG_Y312_M317I] 0.849, FPLELYERVRM [PRKCG_Y312_YF] 1.08, QITQVYGFYHE [PPP2CA_Y127_D131H] 1.21, MCITQYKRESQ [PRNP_Y218_E219K] 0.808, FENGEYIIRQG [PRKG1_Y247_YF] 0.965, DAPVVYLGSFR [PRAG1_Y132] 0.639, CGTPDNIAPEI [PRKCG_Y521_Y521N] 0.639, ECKETYHEGEC [PRKN_Y372_A371T] 0.641, LFMGDYVGRGY [PPP2CA_Y86_D88G] 0.671, AKKMKYFEGVS [PRKDC_Y682_I680M] 0.523, QITQVYGFFHE [PPP2CA_Y127_D131H_YF] 1.62, TTTQAYRVDER [PRKN_Y391] 0.552, HITQVYGFFDE [PPP2CA_Y127_Q122H_YF] 1.95, RNIQQHNSFVS [PRKAR1A_Y373_Y373H] 0.965, KCCCIYEKPRA [PPP1R11_Y64] 0.865, PEIIAYQPFGK [PRKCG_Y529_YF] 0.884, LVQAEYWHDPI [PPT1_Y185] 1.32

The binders below were run against SHP2 N-SH2 domain wild-type in the same assay as above. Conditions: peptide library: pTyr-Var.

Enrichment score, inactive:
LRRREYQRQDF [PRKRIP1_Y90_YF] 0.198, YPLELYERVRI [PRKCG_Y312_M317I] 0.978, FPLELYERVRM [PRKCG_Y312_YF] 1.26, QITQVYGFYHE [PPP2CA_Y127_D131H] 1.21, MCITQYKRESQ [PRNP_Y218_E219K] 0.582, FENGEYIIRQG [PRKG1_Y247_YF] 0.917, DAPVVYLGSFR [PRAG1_Y132] 0.718, CGTPDNIAPEI [PRKCG_Y521_Y521N] 1.05, ECKETYHEGEC [PRKN_Y372_A371T] 0.552, LFMGDYVGRGY [PPP2CA_Y86_D88G] 0.946, AKKMKYFEGVS [PRKDC_Y682_I680M] 0.704, QITQVYGFFHE [PPP2CA_Y127_D131H_YF] 1.65, TTTQAYRVDER [PRKN_Y391] 0.65, HITQVYGFFDE [PPP2CA_Y127_Q122H_YF] 1.65, RNIQQHNSFVS [PRKAR1A_Y373_Y373H] 0.75, KCCCIYEKPRA [PPP1R11_Y64] 1.3, PEIIAYQPFGK [PRKCG_Y529_YF] 0.837, LVQAEYWHDPI [PPT1_Y185] 1.17
